Out of some 3,200 compounds screened, about 110 (3.4%) showed an effect of 50% or more. This is one part of the list.

For this test, the system named is T1, V. cholerae SAD30.
T1 construct: SAD30
Also noted: species or system S. aureus MSSA476 (TSB) or V. cholerae SAD30 (LB); 384-well bacterial growth screen at 25 uM, OD600 relative to DMSO control. The note with it: relative growth, OD600, LB; 25 µM; inhibitor.
With `COc1ccc(C(=O)C(C)Cl)c(OC)c1` (stereo not shown) [10-J17, 2-chloro-1-(2,4-dimethoxyphenyl)propan-1-one], the “% of control remaining” value is listed as 98.0323%. The value for `CC(Cl)C(=O)NCCS(=O)(=O)c1cccs1` (stereo not shown) [6-N15, 2-chloro-N-[2-(thiophene-2-sulfonyl)ethyl]propanamide] was 94.0373%. The value for `COc1ccc(C=C(C#N)C(=O)Nc2ccc3c(c2)OCCO3)cc1O` [8-H19, 2-cyano-N-(2,3-dihydro-1,4-benzodioxin-6-yl)-3-(3-hydroxy-4-methoxyphenyl)prop-2-enamide] was 77.1584%; that for `C=CC(=O)NCC1(C)CCC(C)(C)CC1` [1-F22, N-[(1,4,4-trimethylcyclohexyl)methyl]prop-2-enamide] was 115.554%. As to `C=CC(=O)NCc1cnoc1C` [3-C22, N-[(5-methyl-1,2-oxazol-4-yl)methyl]prop-2-enamide], the “% of control remaining” value is on record as 117.673%. The same measure for `CC(Cl)C(=O)N(C)CCOc1ccc(Cl)cc1` (stereo not shown) [6-C12, 2-chloro-N-[2-(4-chlorophenoxy)ethyl]-N-methylpropanamide]: 74.0165%; for `O=C(CCl)NCc1coc(Cl)n1` [6-B04, 2-chloro-N-[(2-chloro-1,3-oxazol-4-yl)methyl]acetamide]: 95.2507%. For the compound `O=C(CCl)Nc1cccc(Oc2ccccc2)c1` [4-P19, 2-chloro-N-(3-phenoxyphenyl)acetamide], the “% of control remaining” value worked out at 96.6142%. `O=C(CCl)N(CC=Cc1ccccc1)c1ccc2c(c1)OCCO2` [4-G19, 2-chloro-N-(2,3-dihydro-1,4-benzodioxin-6-yl)-N-(3-phenylprop-2-en-1-yl)acetamide]: the “% of control remaining” value is given as 103.86%.

As for `CC1CN(C(=O)C(C#N)=Cc2ccc(OC(F)F)cc2)CC(C)O1` (stereo not shown) [8-G05, 3-[4-(difluoromethoxy)phenyl]-2-(2,6-dimethylmorpholine-4-carbonyl)prop-2-enenitrile], the “% of control remaining” value is on record as 76.3426%. The same measure for `C=CC(=O)NCC1CCc2cccnc21` (stereo not shown) [3-M07, N-({5H,6H,7H-cyclopenta[b]pyridin-7-yl}methyl)prop-2-enamide]: 94.9127%.

`N#CC(=Cc1ccc2ccccc2c1)C(=O)NCc1ccccc1` [9-N11, N-benzyl-2-cyano-3-(naphthalen-2-yl)prop-2-enamide]: the “% of control remaining” value stood at 84.5003%. The value for `Cc1nc(C#N)c(N2CCN(C(=O)CCl)CC2)o1` [5-L18, 5-[4-(2-chloroacetyl)piperazin-1-yl]-2-methyl-1,3-oxazole-4-carbonitrile] was 96.3329%; that for `O=C(CCl)NCC1(c2ccc(F)cc2)CCCC1` [6-E18, 2-chloro-N-{[1-(4-fluorophenyl)cyclopentyl]methyl}acetamide] was 85.2403%; that for `C=CC(=O)N1CCC(C(=O)N2CCOc3cc(F)ccc3C2)CC1` [3-E06, 1-[4-(8-fluoro-2,3,4,5-tetrahydro-1,4-benzoxazepine-4-carbonyl)piperidin-1-yl]prop-2-en-1-one] was 91.3839%. In the case of `C=CC(=O)N(Cc1cccc(Cl)c1F)C(C)C1CCOCC1` (stereo not shown) [1-F04, N-[(3-chloro-2-fluorophenyl)methyl]-N-[1-(oxan-4-yl)ethyl]prop-2-enamide], the “% of control remaining” value is 108.93%. The value for `C=CC(=O)N1CCN(C(=O)c2cc(C)no2)CC1` [1-N19, 1-[4-(3-methyl-1,2-oxazole-5-carbonyl)piperazin-1-yl]prop-2-en-1-one] was 88.3408%; that for `CS(=O)(=O)c1ccc(CNC(=O)CCl)cc1` [6-O12, 2-chloro-N-[(4-methanesulfonylphenyl)methyl]acetamide] was 95.2507%; that for `C=CC(=O)N1CCC(C(=O)NC(C)(C)c2ccc(F)c(F)c2)CC1` [1-L04, N-[2-(3,4-difluorophenyl)propan-2-yl]-1-(prop-2-enoyl)piperidine-4-carboxamide] was 117.272%.

Take `COC(=O)c1cccc(C(=O)CCl)c1` [10-I11, methyl 3-(2-chloroacetyl)benzoate]: the “% of control remaining” value was found to be 32.4177%.

`O=C1C=CC(=O)N1CCc1ccccc1` [10-E20, 1-(2-phenylethyl)-2,5-dihydro-1H-pyrrole-2,5-dione]: the “% of control remaining” value amounted to 27.5862%. The value for `NC(=O)CCc1ccc(C(=O)CCl)cc1` [10-I03, 3-[4-(2-chloroacetyl)phenyl]propanamide] was 70.7578%; that for `C=CC(=O)N1CCCN(C(=O)c2ccc(OC)cc2)CC1` [3-A21, 1-[4-(4-methoxybenzoyl)-1,4-diazepan-1-yl]prop-2-en-1-one] was 127.201%. The same measure for `C=CC(=O)Nc1cnn(-c2ccccc2C)c1C(F)F` [1-E22, N-[5-(difluoromethyl)-1-(2-methylphenyl)-1H-pyrazol-4-yl]prop-2-enamide]: 98.0568%. For `C=CC(=O)N1CCOC(c2cccc(OC)c2)C1` (stereo not shown) [3-E09, 1-[2-(3-methoxyphenyl)morpholin-4-yl]prop-2-en-1-one], the “% of control remaining” value is on record as 97.7357%. The value for `O=C(CCl)COc1ccc(Cl)cc1` [10-M17, 1-chloro-3-(4-chlorophenoxy)propan-2-one] was 11.6891%; that for `Cc1[nH]c2ccccc2c1C=C(C#N)C(=O)NCc1ccccc1` [8-D16, N-benzyl-2-cyano-3-(2-methyl-1H-indol-3-yl)prop-2-enamide] was 68.5928%. The value for `N#CC(=Cc1ccc2c(c1)OCCO2)C(=O)Nc1nccs1` [8-B03, 2-cyano-3-(2,3-dihydro-1,4-benzodioxin-6-yl)-N-(1,3-thiazol-2-yl)prop-2-enamide] was 93.8817%; that for `O=C(CCl)N[C@H]1C[C@H](c2ccccc2)C1` [7-D12, 2-chloro-N-[(1r,3r)-3-phenylcyclobutyl]acetamide] was 82.2072%; that for `O=C(CCl)Nc1ccc(SC(F)F)cc1` [4-B10, 2-chloro-N-{4-[(difluoromethyl)sulfanyl]phenyl}acetamide] was 104.205%. The same measure for `CC(C)CN(C(=O)CCl)C1CC1` [5-D14, 2-chloro-N-cyclopropyl-N-(2-methylpropyl)acetamide]: 92.298%; for `C=CC(=O)Nc1cc(C)n(CC(C)c2nnc3n2CCCCC3)n1` (stereo not shown) [2-A17, N-[5-methyl-1-(2-{5H,6H,7H,8H,9H-[1,2,4]triazolo[4,3-a]azepin-3-yl}propyl)-1H-pyrazol-3-yl]prop-2-enamide]: 92.3574%. `C=CC(=O)N1CCC(C(=O)N[C@H]2CC[C@@H]2O)(c2ccccc2)CC1` (racemic) [3-G08, rac-N-[(1R,2R)-2-hydroxycyclobutyl]-4-phenyl-1-(prop-2-enoyl)piperidine-4-carboxamide]: the “% of control remaining” value came to 93.3248%. Regarding `COc1cc([N+](=O)[O-])ccc1NC(=O)CCl` [4-O07, 2-chloro-N-(2-methoxy-4-nitrophenyl)acetamide], the “% of control remaining” value was 100.582%.

As for `C=CC(=O)Nc1ccc(-c2noc(C)n2)cc1` [1-K16, N-[4-(5-methyl-1,2,4-oxadiazol-3-yl)phenyl]prop-2-enamide], the “% of control remaining” value stood at 84.6039%.

On to `O=C(CCl)NC(c1ccccc1)C1CC1` (stereo not shown) [5-L16, 2-chloro-N-[cyclopropyl(phenyl)methyl]acetamide], for which the “% of control remaining” value came out at 96.501%. The same measure for `Cc1cc(C=C(C#N)C(N)=O)c(C)n1-c1cccc2ccccc12` [9-I12, 2-cyano-3-[2,5-dimethyl-1-(naphthalen-1-yl)-1H-pyrrol-3-yl]prop-2-enamide]: 52.4133%; for `COc1ccc(C=C(C#N)C(=O)Nc2ccccc2)cc1` [8-A05, 2-cyano-3-(4-methoxyphenyl)-N-phenylprop-2-enamide]: 91.9782%; for `C=CC(=O)NC1(c2ccc(C(F)(F)F)cc2)CCCC1` [2-E04, N-{1-[4-(trifluoromethyl)phenyl]cyclopentyl}prop-2-enamide]: 87.4168%. Consider `COc1ccc(NC(=O)C(C#N)=Cc2c(Cl)nc3ccccn23)cc1` [9-G09, 3-{2-chloroimidazo[1,2-a]pyridin-3-yl}-2-cyano-N-(4-methoxyphenyl)prop-2-enamide], for which the “% of control remaining” value came out at 85.9959%. The same measure for `C=CC(=O)N1CC(OCc2nc(C)no2)C1` [1-P18, 1-{3-[(3-methyl-1,2,4-oxadiazol-5-yl)methoxy]azetidin-1-yl}prop-2-en-1-one]: 127.331%; for `C=CC(=O)NCCC(=O)N1CCN(c2ccccc2Cl)CC1` [3-J22, N-{3-[4-(2-chlorophenyl)piperazin-1-yl]-3-oxopropyl}prop-2-enamide]: 101.97%; for `O=C(CCl)NC1CCC(O)(c2cccc(F)c2)CC1` (stereo not shown) [5-A11, 2-chloro-N-[4-(3-fluorophenyl)-4-hydroxycyclohexyl]acetamide]: 100.872%. The same measure for `C=CC(=O)N1CC(NC(=O)c2ccoc2CC)C(C)(C)C1` (stereo not shown) [1-L22, N-[4,4-dimethyl-1-(prop-2-enoyl)pyrrolidin-3-yl]-2-ethylfuran-3-carboxamide]: 95.4367%; for `C=CC(=O)NC1C(=O)OCC1(C)C` (stereo not shown) [1-E08, N-(4,4-dimethyl-2-oxooxolan-3-yl)prop-2-enamide]: 96.1136%. For the compound `N#CC(=CC1=Cc2ccccc2OC1)C(=O)NCc1ccccc1` [9-F08, N-benzyl-3-(2H-chromen-3-yl)-2-cyanoprop-2-enamide], the “% of control remaining” value is on record as 87.4915%.

The values are drawn from paper PMC11995724, “Antibiotic target discovery by integrated phenotypic and activity-based profiling of electrophilic fragments” (Cell chemical biology, 2025).
